Screen size: about 340,000 compounds; about 20 (0.006%) were called active. Inconclusive results, whose numbers are uncertain, are shown with a selection of clear calls. The call rests on the fitted dose curve; in most records, active means well fitted inhibition curve with a large enough effect; inconclusive means small, poorly fitted or top-dose-only effect; inactive means no such curve, though single readings can be large or run the other way. A potency beside an inconclusive call is a rough fit, not a confirmed value.
Target: Sphingomyelin phosphodiesterase (Homo sapiens) (UniProt P17405)
Chain of UniProt P17405 (P17405 whole entry, looked up): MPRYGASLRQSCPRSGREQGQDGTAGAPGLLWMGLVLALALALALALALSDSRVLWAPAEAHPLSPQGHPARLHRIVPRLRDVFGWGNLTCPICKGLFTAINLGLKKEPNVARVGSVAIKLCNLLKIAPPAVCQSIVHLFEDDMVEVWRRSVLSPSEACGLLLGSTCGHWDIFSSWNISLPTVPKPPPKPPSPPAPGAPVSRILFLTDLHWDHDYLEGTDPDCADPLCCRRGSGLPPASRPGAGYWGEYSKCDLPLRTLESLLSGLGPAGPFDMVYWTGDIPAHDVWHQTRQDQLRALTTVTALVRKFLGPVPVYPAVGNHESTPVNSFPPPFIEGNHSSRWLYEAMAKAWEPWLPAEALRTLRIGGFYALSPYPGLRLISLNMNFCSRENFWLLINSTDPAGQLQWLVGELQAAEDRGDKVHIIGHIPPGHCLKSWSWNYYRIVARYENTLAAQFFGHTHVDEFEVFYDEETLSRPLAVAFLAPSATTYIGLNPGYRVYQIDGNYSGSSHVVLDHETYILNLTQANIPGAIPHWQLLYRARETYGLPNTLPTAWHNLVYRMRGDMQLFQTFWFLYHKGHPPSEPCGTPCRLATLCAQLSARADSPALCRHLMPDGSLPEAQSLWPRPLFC
Test: Inhibitors of Secretory Acid Sphingomyelinase (S-ASM): qHTS
Conditions: placental ASM, HMU-PC fluorogenic substrate (series up to 57.5 µM), 60 min
Outline: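 qHTS format. ASM enzyme prepared from human placenta hydrolyses the fluorogenic substrate HMU-PC0 (9 uM final) over 60 min at 37 °C after a 10 min compound preincubation.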
Potency means the concentration at half of the fitted maximal effect; tags describe the fitted curve by direction and shape.

| SMILES | Potency |
| --- | --- |
| O=C(O)CSc1cc(NS(=O)(=O)c2cccc([N+](=O)[O-])c2)c2ccccc2c1O | inconclusive: 79.4 µM [inhibitor, partial curve, poor fit] |
| CCOc1cc(CNc2ccccc2)cc(Br)c1OCc1ccccc1F | inactive |
| Cc1ccc(-n2cc(C(=O)c3ccc4ccccc4c3O)cn2)cc1 | inactive |
| CC(C)[Si]1(C(C)C)OCC2OC(n3cnc4c(N)ncnc43)C(N)C2O[Si](C(C)C)(C(C)C)O1 (configuration not stated) | inconclusive: 79.4 µM [inhibitor, single point] |
| CC(C)OC(=O)c1c(-c2ccc(C(C)C)cc2)csc1NC(=O)C1CCCO1 (configuration not stated) | inconclusive: 100 µM [inhibitor, partial curve, poor fit] |
| Cc1cccc(Nc2nc(N)c([N+](=O)[O-])c(NCc3ccco3)n2)c1 | inconclusive: 112 µM [inhibitor, partial curve] |
| C=CCOc1ccc(/C=C/C(=O)OCC(=O)N2CCC(c3ccccc3)=N2)cc1 | inconclusive: 355 µM [inhibitor, partial curve, poor fit] |
| CC(C)Sc1nc2c(c(=O)n(C)c(=O)n2C)n1Cc1ccc(Cl)cc1 | inconclusive: 112 µM [inhibitor, partial curve, poor fit] |
| CCOC(=O)N1CCN(C(=S)NC(=O)c2ccc(F)c(F)c2)CC1 | inactive |
| CCCCCCCCOC(=O)c1cc([N+](=O)[O-])c(Sc2ncnc3nc[nH]c23)c([N+](=O)[O-])c1 | inconclusive: 100 µM [inhibitor, single point] |
| O=C(N/N=C/C=C/c1ccccc1)c1ccccn1 | inactive |
| Cn1cccc1/C=C1\SC(=S)N(Nc2ccccc2)C1=O | inconclusive: 89.1 µM [inhibitor, single point] |
| C=CCn1c(CCc2cc(C(C)(C)C)c(O)c(C(C)(C)C)c2)n[nH]c1=S | inconclusive: 89.1 µM [inhibitor, single point] |
| Cn1c(N)c(C(=O)COC(=O)c2cc(C3CC3)nc3ccccc23)c(=O)n(C)c1=O | inconclusive: 158 µM [inhibitor, partial curve, poor fit] |
| COC(=O)COc1cc(OCC(=O)OC)c2c(C)c(Cl)c(=O)oc2c1 | inactive |
| COc1ccc2cc(C(=O)/C=C/c3cc(OC)c(O)c(OC)c3)ccc2c1 | inconclusive: 79.4 µM [inhibitor, single point] |
| CCCNC(=O)CSc1n[nH]c(=O)n1CCc1ccccc1 | inactive |
| Nc1nc(-c2ccccc2)nc(-c2ccccc2O)n1 | inconclusive: 355 µM [inhibitor, partial curve, poor fit] |
| Cn1c(=O)c(=O)n(C)c2cc(S(=O)(=O)Nc3ccc4c(c3)OCCO4)ccc21 | inactive |
| COc1ccc(CCNS(=O)(=O)c2ccc(N3CCCC3=O)cc2)cc1 | inactive |
| CC1(C)CC(=O)C(C=Nc2cccnc2/N=C/C2=C(O)CC(C)(C)CC2=O)=C(O)C1 | inactive |

| SMILES | Potency |
| --- | --- |
| COc1cc2[nH]c3c(N4CCN(c5ccc(Cl)cc5)CC4)ncnc3c2cc1OC | inconclusive: 31.6 µM [inhibitor, partial curve, poor fit] |
| O=C(NC(=S)Nc1ccc(Oc2ccccc2)cc1)c1ccc(Cl)cc1 | inactive |
| O=C(NC1CC1)c1c[nH]c2ccc(S(=O)(=O)Nc3cccc(C(F)(F)F)c3)cc2c1=O | inconclusive: 63.1 µM [inhibitor, partial curve, poor fit] |
| N=C1/C(=C\c2ccc(OC(=O)c3ccc(F)cc3)cc2)C(=O)N=C2SC(N3CCOCC3)=NN12 | inactive |
| Cc1ccc(Cn2c(C(C)Nc3nc(-c4ccc(F)cc4)cs3)nc3cc(C(=O)NCCCO)ccc32)cc1 (configuration not stated) | inconclusive: 224 µM [inhibitor, partial curve, poor fit] |
| COc1cc2cnc(-c3ccccc3)c(-c3ccc(C(F)(F)F)cc3)c2cc1OC | inconclusive: 89.1 µM [inhibitor, partial curve] |
| Cc1oc(C)c(C(=O)NCCCC(=O)O)c1C(=O)NCCCC(=O)O | inactive |
| COc1ccc(-c2noc(N3CCC(C(=O)Nc4ccc(OC)cc4OC)CC3)n2)cc1 | inconclusive: 100 µM [inhibitor, partial curve, poor fit] |
| O=C(Nc1ccccc1)C(Cl)C(=O)c1ccccc1 (configuration not stated) | inactive |
| COc1ccc2c(=O)c(-c3ccc(C)cc3)c(-c3ccccc3)oc2c1 | inconclusive: 112 µM [inhibitor, partial curve, poor fit] |
| COc1cc(/C=N/Nc2nc(Nc3ccccc3)nc(N3CCOCC3)n2)ccc1OC(=O)c1ccco1 | inconclusive: 141 µM [inhibitor, partial curve, poor fit] |
| COc1ccc(-c2cc(C(=O)Nc3cc(OC)cc(C(=O)Nc4cccc(C(F)(F)F)c4)c3)[nH]n2)cc1 | inconclusive: 3550 µM [inhibitor, partial curve, poor fit] |
| O=C(Cc1cccs1)NC1(C(=O)NC2CCCC2)CCCCC1 | inactive |
| CCSc1nnc(NC(=O)c2cccc(OCc3c(C)noc3C)c2)s1 | inconclusive: 251 µM [inhibitor, partial curve, poor fit] |
| CCC(=O)OC1(C(C)=O)CCC2C3CCC4=CC(=O)CCC4(C)C3CCC21C (configuration not stated) | inactive |
| CCCCCCn1c(N2CCN(c3ccccc3)CC2)nc2c1c(=O)n(C)c(=O)n2C | inconclusive: 89.1 µM [inhibitor, partial curve, poor fit] |
| COc1ccc(Nc2cc(C)c3cc([N+](=O)[O-])ccc3n2)cc1 | inconclusive: 89.1 µM [inhibitor, single point] |
| Cc1ccc(C2=NN(C(=O)CCC(=O)O)C(c3cn(-c4ccccc4)nc3-c3ccc(C)cc3)C2)cc1 (configuration not stated) | inconclusive: 31.6 µM [inhibitor, partial curve, poor fit] |
| CCCc1ccc2oc(C(=O)NCCc3nc(C(=O)OCC)cs3)c(C)c2c1 | inconclusive: 224 µM [inhibitor, partial curve, poor fit] |
| Cc1cccc(NC(=O)c2ccc(NS(=O)(=O)c3cccc4cccnc34)cc2)c1 | inconclusive: 398 µM [inhibitor, partial curve, poor fit] |
| CCCn1c(=N)n(CC(=O)c2ccc([N+](=O)[O-])cc2)c2ccccc21 | inactive |

| SMILES | Potency |
| --- | --- |
| CC(C)C[C@H]1CNC(=S)N1CC1CCCN1C[C@H](Cc1ccccc1)N1C[C@H](Cc2ccc(O)cc2)N(CC2CCCCCC2)C1=S (some centres not stated) | inconclusive: 79.4 µM [inhibitor, partial curve, poor fit] |
| COc1cccc(C(=O)Oc2cc3c4c(c2)C(C)=CC(C)(C)N4C(=O)C3=O)c1 | inconclusive: 251 µM [inhibitor, partial curve, poor fit] |
| Cc1cc(C)c(NC(=O)CNC(=O)CSc2nnc(N)s2)c(C)c1 | inactive |
| Nc1cc(N2CCCC2)c(Cl)cc1[N+](=O)[O-] | inconclusive: 1580 µM [inhibitor, partial curve, poor fit] |
| Cc1cc(NS(=O)(=O)c2ccc(NC(=O)CCCOc3ccc(Cl)cc3)cc2)no1 | inconclusive: 100 µM [inhibitor, partial curve, poor fit] |
| CCc1nnc(SCC(=O)Nc2ccc3c(c2)OCO3)n1CC | inactive |
| COc1cc(NC(=O)[C@@H](NC(=O)N2CCn3c2nc2ccccc23)C(C)C)cc(OC)c1 | inconclusive: 316 µM [inhibitor, partial curve, poor fit] |
| Cc1cc(N2CCN(C(c3ccccc3)c3ccc(Cl)cc3)CC2)n2ncnc2n1 (configuration not stated) | inconclusive: 79.4 µM [inhibitor, partial curve, poor fit] |
| CCSc1nnc(NC(=O)C(CC)(C(F)(F)F)C(F)(F)F)s1 | inactive |
| COc1cc(/C=N/NC(=O)CCC(=O)Nc2ccc(Br)cc2)ccc1O | inactive |
| CC(=O)n1cc([C@H]2C=C(C(=O)Nc3ccccc3)O[C@@H](OCc3ccc(CO)cc3)C2)c2ccccc21 | inconclusive: 100 µM [inhibitor, partial curve, poor fit] |
| COC(=O)C1=C(C)N(C)C(C)=C(C(=O)OC)C1c1ccc(F)c(Br)c1 | inconclusive: 79.4 µM [inhibitor, partial curve, poor fit] |
| c1ccc(OCc2nnc3sc(C4COc5ccccc5O4)nn23)cc1 (configuration not stated) | inconclusive: 44.7 µM [inhibitor, partial curve, poor fit] |
| Cc1cc(/C=C\c2ccc3cc(N(C)C)ccc3[n+]2C)c(C)n1-c1ccccc1 | inconclusive: 100 µM [inhibitor, partial curve] |
| COc1cc(/C=C2\CCC(C)C3=C(c4cc(OC)c(OC)c(OC)c4)C(C#N)=C(N)OC32)cc(OC)c1OC (configuration not stated) | inconclusive: 126 µM [inhibitor, partial curve, poor fit] |
| Cc1cc(/C=N/n2cnnc2)c(C)n1-c1ccc(OCc2ccc(Cl)cc2Cl)cc1 | inconclusive: 89.1 µM [inhibitor, single point] |
| O=C(NCc1ccccc1)N1CCC(Cc2ccccc2)CC1 | inactive |
| CC1=C([N+](=O)[O-])C(c2ccccc2)C2=C(N1)c1ccccc1C2=O (configuration not stated) | inconclusive: 89.1 µM [inhibitor, single point] |
| Cc1cc(NC(=O)C2CCCC2)n(-c2nc3ccccc3[nH]2)n1 | inconclusive: 112 µM [inhibitor, partial curve, poor fit] |
| O=S(=O)(c1ccc2nc(COc3ccc(Cl)cc3Cl)[nH]c2c1)N1CCOCC1 | inconclusive: 100 µM [inhibitor, partial curve] |

— PubChem BioAssay AID504937 (National Center for Advancing Translational Sciences (NCATS), 2011)
